Experimental findings from the supplement of paper PMC6135742 are described below.

Where a name gives a salt, the structure may show the parent alone. ± gives the standard deviation of the averaged measurements. Over roughly 2,600 compounds, “MBP+ mature oligodendrocyte number relative to DMSO vehicle control” has its median near -0.34; the highest 2% begin near 13. The list shows a part of the results. Where only a bound is given, the exact number is not on record here.
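Note: 10 µM single dose with 3-day oligodendrocyte differentiation.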

The test system of this test is jimpy (Plp1 jimpy) mouse iPSC-derived oligodendrocyte progenitor cells. The test is described as follows: MBP+ mature oligodendrocyte number relative to DMSO vehicle control (SDs above negative control mean); higher = more surviving jimpy oligodendrocytes (rescue). Particulars: 10 µM; 3 days.
On to `N[C@@]1(C(=O)O)CS(=O)(=O)[C@H]2[C@H](C(=O)O)[C@H]21`, for which the “MBP+ mature oligodendrocyte number” value was 2.94.

As for `C[C@H]1O[C@@H](Oc2c(-c3cc(O)c(O)c(O)c3)oc3cc(O)cc(O)c3c2=O)[C@@H](O)[C@@H](O)[C@@H]1O` [Myricitrin], the “MBP+ mature oligodendrocyte number” value was determined as 0.507. For the compound `C=C1/C(=C\C=C2/CCC[C@]3(C)[C@@H]([C@H](C)/C=C/[C@H](C)C(C)C)CC[C@@H]23)C[C@@H](O)C[C@@H]1O` [Doxercalciferol], the “MBP+ mature oligodendrocyte number” value was 8.14.

Consider `Cc1ccc2c(=O)c3cccc(CC(=O)O)c3oc2c1C` [DMXAA (Vadimezan)], for which the “MBP+ mature oligodendrocyte number” value was -0.107.

Consider `CC(C)(C)c1ccc(C(O)CCCN2CCC(C(O)(c3ccccc3)c3ccccc3)CC2)cc1` (stereo not given) [Terfenadine], for which the “MBP+ mature oligodendrocyte number” value was less than -3.85. On to `COc1cc(NC(C)CCCN)c2ncccc2c1` (stereo not given) [Primaquine Diphosphate], for which the “MBP+ mature oligodendrocyte number” value was less than -6.35. The result for `CC(=O)CC/C=C(\C)CC/C=C(\C)CC/C=C(\C)CCC=C(C)C` [Geranylgeranylacetone] reads 3.99; that for `COCCOc1cc2ncnc(Cl)c2cc1OCCOC`, -0.247; that for `CC[N+](CC)(CC)CC(=O)Nc1c(C)cccc1C` [Lidocaine N-ethyl bromide quaternary salt], -1.11. `Cc1ccc([N+](=O)[O-])cc1S(=O)(=O)N(C)/N=C/c1cnc2ccc(Br)cn12`: the “MBP+ mature oligodendrocyte number” value is less than -6.7. `CC/C(=C(/CC)c1ccc(O)cc1)c1ccc(O)cc1` [Diethylstilbestrol]: the “MBP+ mature oligodendrocyte number” value was 5.2. As to `CC1=C(/C=C/C(C)=C/C=C/C(C)=C\C(=O)O)C(C)(C)CCC1` [Isotretinoin], the “MBP+ mature oligodendrocyte number” value is 0.196. The figure for `CC1=C(/C=C/C(C)=C/C=C/C(C)=C\C(=O)O)C(C)(C)CCC1` [13-cis-retinoic acid] is -0.283. Take `Nc1nc(OCc2ccccc2)c2nc[nH]c2n1` [O6-benzylguanine]: the “MBP+ mature oligodendrocyte number” value was -1.14. In the case of `NC1C=CC=C(C(=O)O)C1` (stereo not given) [Gabaculine hydrochloride], the “MBP+ mature oligodendrocyte number” value stood at 0.235. Take `CC(C)(Sc1ccc(CCN(CCCCC2CCCCC2)C(=O)NC2CCCCC2)cc1)C(=O)O`: the “MBP+ mature oligodendrocyte number” value is -1.38. On to `CSc1ccc2c(c1)N(CCC1CCCCN1C)c1ccccc1S2` (stereo not given) [Thioridazine hydrochloride], for which the “MBP+ mature oligodendrocyte number” value was less than -3.85.

For `NC(N)=Nc1nc(CSCC/C(N)=N/S(N)(=O)=O)cs1` [Famotidine], the “MBP+ mature oligodendrocyte number” value is -0.0723 ± 0.81. For the compound `COc1ccc(-c2ccc3c(N4CCOCC4)nc(N4C[C@@H](C)O[C@@H](C)C4)nc3n2)cc1CO`, the “MBP+ mature oligodendrocyte number” value is -6.17. As to `Nc1ccc(CCNc2ncnc3c2ncn3C2OC(CO)C(O)C2O)cc1` (stereo not given) [N6-2-(4-Aminophenyl)ethyladenosine], the “MBP+ mature oligodendrocyte number” value was -1.49. The figure for `C/C(=C\c1ccc(C(=O)O)cc1)c1ccc2c(c1)C(C)(C)CCC2(C)C` [TTNPB (Arotinoid Acid)] is 2.43. The result for `COc1cc(OC)c(/C=C/S(=O)(=O)Cc2ccc(OC)c(NCC(=O)O)c2)c(OC)c1` reads -3.12; that for `CN(C)[C@@H]1C(O)=C(C(N)=O)C(=O)[C@@]2(O)C(O)=C3C(=O)c4c(O)cccc4[C@@](C)(O)[C@H]3[C@H](O)[C@@H]12` [Oxytetracycline (Terramycin)], 2.59; that for `OC(CN1CCN(c2cccc(Cl)c2)CC1)C(c1ccccc1)c1ccccc1` (stereo not given), -1.32. Consider `CC(Cc1ccc(O)c(O)c1)(NN)C(=O)O` (stereo not drawn) [S-(-)-Carbidopa], for which the “MBP+ mature oligodendrocyte number” value was -1.01.

Consider `CCCCCCCCCC(=O)NC(CN1CCOCC1)[C@H](O)c1ccccc1` (mixture of isomers), for which the “MBP+ mature oligodendrocyte number” value is -0.0684. For `CN(C)c1ccc(O)c2c1C[C@H]1C[C@H]3[C@H](N(C)C)C(O)=C(C(N)=O)C(=O)[C@@]3(O)C(O)=C1C2=O` [Minocycline hydrochloride], the “MBP+ mature oligodendrocyte number” value was -0.637.

Regarding `CCN1CCc2nc(N)oc2CC1` [B-HT 933 dihydrochloride], the “MBP+ mature oligodendrocyte number” value was -0.0401. The result for `COc1cc(C(C)=O)ccc1O` [Apocynin] reads 0.843; that for `C[N+](C)(C)CCOC(=O)CCC(=O)OCC[N+](C)(C)C` [Succinylcholine chloride], -0.925; that for `C[N+](C)(C)CCOC(=O)CCC(=O)OCC[N+](C)(C)C` [Succinylcholine Chloride Dihydrate], 0.491.

For the compound `Nc1cc(F)ccc1NC(=O)/C=C/c1cnn(C/C=C/c2ccccc2)c1`, the “MBP+ mature oligodendrocyte number” value was less than -6.35. With `CC(C)C[C@H](C(=O)O)c1cc(-c2ccc(C(F)(F)F)cc2)cc(-c2ccc(C(F)(F)F)cc2)c1`, the “MBP+ mature oligodendrocyte number” value stood at 25.5. The result for `CCOc1ccc2nc3cc(N)ccc3c(N)c2c1` [Ethacridine lactate monohydrate] reads less than -6.35; that for `CN(Cc1cnc2nc(N)nc(N)c2n1)c1ccc(C(=O)N[C@@H](CCC(=O)O)C(=O)O)cc1` [Methotrexate], -2.16. On to `CN1CCN(c2c(F)cc3c(=O)c(C(=O)O)cn4c3c2OCN4C)CC1` [Marbofloxacin], for which the “MBP+ mature oligodendrocyte number” value amounted to 0.458. The figure for `C[C@H]1[C@H](C)CC[C@]2(C(=O)O)CC[C@]3(C)C(=CC[C@@H]4[C@@]5(C)C[C@@H](O)[C@H](O)[C@@](C)(CO)[C@@H]5CC[C@]43C)[C@H]12` [Asiatic Acid] is -0.108.

In the case of `CCOC(=O)c1ccc(N)cc1` [Benzocaine], the “MBP+ mature oligodendrocyte number” value was 1.08. Consider `CCCCCCCCCCCCc1ccc(S(=O)(=O)Nc2nncs2)cc1`, for which the “MBP+ mature oligodendrocyte number” value is 0.973. Turning to `COc1ccc(CCNc2nc(N3CCc4cc(OC)c(OC)cc4C3)c3cc(OC)c(OC)cc3n2)cc1OC`, the “MBP+ mature oligodendrocyte number” value is less than -3.34. With `CCN(CC)CCOC(=O)C(c1ccccc1)c1ccccc1` [Adiphenine HCl], the “MBP+ mature oligodendrocyte number” value worked out at 0.0731. For `C=CCn1c(=O)c2c(nc(-c3ccc(S(=O)(=O)O)cc3)n2C)n(C)c1=O` [1-Allyl-3,7-dimethyl-8-p-sulfophenylxanthine], the “MBP+ mature oligodendrocyte number” value was found to be 0.0385.

Take `Cc1ccc(S(=O)(=O)NC(=O)NN2CCCCCC2)cc1` [Tolazamide]: the “MBP+ mature oligodendrocyte number” value is -0.0327. `CCCN(CCc1ccccc1)C1CCc2c(O)cccc2C1` (racemic) [(±)-PPHT hydrochloride]: the “MBP+ mature oligodendrocyte number” value was -2.28. Take `CCCCCCCCCCCC[N+](C)(C)CCOc1ccccc1` [Domiphen Bromide]: the “MBP+ mature oligodendrocyte number” value is less than -6.35. `COCCc1ccc(OCC(O)CNC(C)C)cc1` (racemic) [(±)-Metoprolol (+)-tartrate]: the “MBP+ mature oligodendrocyte number” value is -1.81. As to `NC(=O)c1cccc(N)c1` [3-aminobenzamide], the “MBP+ mature oligodendrocyte number” value was determined as 3.57. Consider `Cc1ccc(-n2nc(C(C)(C)C)cc2NC(=O)Nc2ccc(OCCN3CCOCC3)c3ccccc23)cc1` [BIRB 796 (Doramapimod)], for which the “MBP+ mature oligodendrocyte number” value worked out at 6.73. On to `Cc1cc(OCc2nnc(SC3CCCC3)n2-c2cccnc2)ccc1-c1ccc(S(C)(=O)=O)cc1`, for which the “MBP+ mature oligodendrocyte number” value was less than -6.35. For `CNC(=O)c1ccc(C)c(-n2c(C)cc(OCc3ccc(F)cc3F)c(Br)c2=O)c1`, the “MBP+ mature oligodendrocyte number” value stood at 1.45. Take `CNC(=N)NCCC[C@H](N)C(=O)O` [NG-Monomethyl-L-arginine acetate]: the “MBP+ mature oligodendrocyte number” value was -1.38. The figure for `c1ccc(CN(CC2=NCCN2)c2ccccc2)cc1` [Antazoline HCl] is 0.238; for `Nc1ncnc2n[nH]c(Nc3ccc(F)cc3)c12` it is -3.14.

Regarding `CC[C@H](C)C[C@H](C)CCCCCCCCC(=O)N[C@H]1C[C@@H](O)[C@@H](NCCN)NC(=O)[C@@H]2[C@@H](O)CCN2C(=O)[C@H]([C@H](O)CCN)NC(=O)[C@H]([C@H](O)[C@@H](O)c2ccc(O)cc2)NC(=O)[C@@H]2C[C@@H](O)CN2C(=O)[C@H]([C@@H](C)O)NC1=O` [Caspofungin Acetate], the “MBP+ mature oligodendrocyte number” value is -3.07.

Consider `CN(C)Cc1ccc(S(=O)(=O)n2ccc(/C=C/C(=O)NO)c2)cc1` [Resminostat], for which the “MBP+ mature oligodendrocyte number” value was less than -6.01. For the compound `CNC(=O)CN(CCN(CCN(CC(=O)[O-])CC(=O)NC)CC(=O)[O-])CC(=O)[O-].[Gd+3]` [Gadodiamide], the “MBP+ mature oligodendrocyte number” value is less than -5.15. Regarding `CN(C)CC/C=C1/c2ccccc2COc2ccc(CC(=O)O)cc21` [Olopatadine HCl], the “MBP+ mature oligodendrocyte number” value amounted to 0.955. In the case of `Clc1ccc(N2CCN(Cc3cc4ccccn4n3)CC2)cc1`, the “MBP+ mature oligodendrocyte number” value is 0.61. The result for `O=C(O)C1=CCCN(CCON=C(c2ccccc2)c2ccccc2)C1` [NO-711 hydrochloride] reads -1.38. Turning to `O=C1CCCC(=O)C1C(=O)c1ccc(C(F)(F)F)cc1[N+](=O)[O-]` [Nitisinone], the “MBP+ mature oligodendrocyte number” value is -0.167. Consider `C[C@H](NC(=O)C(=O)Nc1ccccc1C(C)(C)C)C(=O)N[C@@H](CC(=O)O)C(=O)COc1c(F)c(F)cc(F)c1F` [Emricasan], for which the “MBP+ mature oligodendrocyte number” value is 10.3. `Oc1cccc(-c2nc(N3CCOCC3)c3oc4ncccc4c3n2)c1`: the “MBP+ mature oligodendrocyte number” value was -6.52. In the case of `C#CCn1c(=O)c2c(ncn2C)n(C)c1=O` [3,7-Dimethyl-1-propargylxanthine], the “MBP+ mature oligodendrocyte number” value was -0.439. Regarding `N#C/C(=C\c1ccc(O)c(O)c1)C(=O)NCc1ccccc1` [AG-490 (Tyrphostin B42)], the “MBP+ mature oligodendrocyte number” value was -5.13. The result for `C#C[C@]1(O)CC[C@H]2[C@@H]3CCC4=CC(=O)CC[C@@H]4[C@H]3CC[C@@]21CC` [Levonorgestrel] reads 3.04; that for `O=C(/C=C/c1ccc(O)c(O)c1)O[C@@H]1C[C@](O)(C(=O)O)C[C@@H](O)[C@H]1O` [Chlorogenic Acid], 1.79.

For the compound `C[C@@H]1COC(Nc2ccc3ncnc(Nc4ccc(OCc5nccs5)c(Cl)c4)c3c2)=N1` [Varlitinib], the “MBP+ mature oligodendrocyte number” value is -5.61. Turning to `CN(C)CCC(c1ccc(Br)cc1)c1ccccn1` (single isomer, unassigned; (+)) [(+)-Brompheniramine maleate], the “MBP+ mature oligodendrocyte number” value is -2.2.

Consider `CC[C@@H](CO)NCCN[C@@H](CC)CO` [Ethambutol HCl], for which the “MBP+ mature oligodendrocyte number” value is -1.09. Turning to `CCN(CC)CCCCNc1ncc2cc(-c3cc(OC)cc(OC)c3)c(NC(=O)NC(C)(C)C)nc2n1`, the “MBP+ mature oligodendrocyte number” value is -6.61. Turning to `CC(C)C[C@H](NC(=O)CNC(=O)c1cc(Cl)ccc1Cl)B1OC(=O)C(CC(=O)O)(CC(=O)O)O1`, the “MBP+ mature oligodendrocyte number” value is less than -4.81. Consider `CN1C2CCC1CC(OC(=O)C(O)c1ccccc1)C2` (stereo not given) [Homatropine Bromide], for which the “MBP+ mature oligodendrocyte number” value was 4.12. The figure for `CC(N)(Cc1ccc(O)c(O)c1)C(=O)O` (racemic) [(±)-3-(3,4-dihydroxyphenyl)-2-methyl-DL-alanine] is -1.46; for `CCCOc1ccc(C(=O)OCCN(CC)CC)cc1N` [Proparacaine HCl] it is 0.883; for `Oc1cc2c(cc1O)C(c1ccccc1)CNCC2` (racemic) it is 6.31.
